In PubChem BioAssay AID588689 (Southern Research Specialized Biocontainment Screening …, 2011):
Values joined by “and” are separate entries in the source; they are usually repeats but may differ in a detail not shown here. Identical values can stand only once. The campaign covered roughly 340,000 compounds. About 1,000 (0.29%) were called active. The shares of active, inactive and inconclusive entries below differ from those in the screen. No stated cut-off is given here; in the data, inconclusive means inhibition above about 29% without an active follow-up result; inactive means below that.

The molecules below were run against Genome polyprotein (Dengue virus type 2 (strain 16681-PDK53)) (UniProt P29991) (assay: Dengue-2 NS5 methyltransferase inhibitors, primary screen, biochemical, confirmation dose response (AID 588689)). Conditions: Dengue-2 NS5 methyltransferase capping enzyme assay, at 25 µM, stronger effect = higher value.

Compound	inhibition
O=C(O)c1ccc(-c2ccc(/C=N/Nc3ccc([N+](=O)[O-])cc3)o2)cc1	inconclusive: 30.5%
O=C(Nc1ccccc1)OCN1C(=O)c2ccccc2C1=O	inconclusive: 74.1%
CCCC1OC23CCCCC2C(C#N)(C(=N)O3)C1(C#N)C#N (configuration not stated)	inconclusive: 81.6%
COc1ccc2noc3c2c1C(=O)c1ccccc1-3	inconclusive: 192%
COc1cccc(C(NC(=O)c2ccccc2F)NC(=O)c2ccccc2F)c1	inactive: -5.64%
CCC(NS(=O)(=O)c1ccc(OC)cc1)C(=O)NCCc1ccccc1 (configuration not stated)	inactive: -3.31%
CCCCC1=CC2=C(c3ccco3)C(=O)C(C)(OC(=O)c3ccc(OC)cc3)C(=O)C2=CN1CCCOC(C)C (configuration not stated)	inconclusive: 32.5%
c1ccc(C2CC(c3ccccc3)C(c3ccccc3)N2)cc1 (configuration not stated)	inactive: -3.92%
CCc1nnc(NC(=O)CSc2nc(-c3ccc(OC)cc3)ns2)s1	inactive: -9.71%
COC1=C/C(=C/c2c(N)n3c(nc2=O)sc2cc(S(C)(=O)=O)ccc23)C=CC1=O	inconclusive: 50.1%
O=C(CCN1CCCCC1=O)NC1CCCN(Cc2ccc(Cl)cc2)C1 (configuration not stated)	inactive: -5.2%
CCOc1cc(CNc2ccc(O)cc2)cc(Br)c1OCc1ccccc1F	inconclusive: 54.6%
CCCC(=O)OCCNc1cc(Sc2nc3ccccc3[nH]2)c2nonc2c1[N+](=O)[O-]	inactive: 20.4%
O=S(=O)(O)c1cc(O)c2ccc(Nc3ccccc3)cc2c1	inactive: 8.94%
O=C(Oc1csc(=S)n1C(=O)c1ccccc1)c1ccccc1	inconclusive: 41.8%
COc1ccc(C2=CC(c3ccc(Cl)cc3)n3cnnc3N2)cc1OC (configuration not stated)	inconclusive: 33.2%
Cc1[nH]n(-c2ccccc2)c(=O)c1C(C[N+](=O)[O-])c1ccccc1Cl (configuration not stated)	inactive: -8.87%
CN(Cc1cnc2nc(N)nc(N)c2n1)c1ccc(C(=O)NC(CCC(=O)O)C(=O)O)cc1 (configuration not stated)	inconclusive: 30.1%
Cc1nc(NS(=O)(=O)c2ccccc2)sc1NC(=O)OCCN(C)C	inconclusive: 80.3%
O=C1N=C(N2C=CC(=C3C=CNC=C3)C=C2)/C(=C/N=NC(=O)c2ccccc2O)S1	inconclusive: 70.9%
Cc1nc(COC(=O)c2ccc(CO)cc2)cs1	inactive: -2.35%
CCc1ccc(NC(=O)/C(C#N)=C/c2cc3ccc(C)cc3nc2N2CCOCC2)cc1	inconclusive: 47.2%

Compound	inhibition
CCN(CC)c1ccc2nc3ccc(N)cc3[n+](-c3ccccc3)c2c1	inconclusive: 119%
CCOC(=O)C1=C(Cc2ccc(Cl)cc2)C(=O)c2ccccc2C1=O	inconclusive: 119%
CCn1c(C)cc(/C=C2/SC(=S)N(CC(=O)O)C2=O)c1C	inactive: -89.8%
O=C(c1ccc(Cl)s1)N1CCc2ccccc21	inactive: -1.37%
COC(=O)c1ccccc1NC1=C/C(=N\S(=O)(=O)c2cccs2)c2ccccc2C1=O	inactive: 7.26% and inactive: 0.39%
N#CC(C(=O)NC1CCCCC1)c1nc2ccccc2nc1N1CCN(c2ccccc2F)CC1 (configuration not stated)	inconclusive: 40.8%
CCCCCCc1cc2cc(/C(N)=N/NC(=O)c3ccncc3)c(=O)oc2cc1O	inconclusive: 103%
O=C(C1CCN(Cc2ccc(Cl)cc2)CC1)N1CCN(C(c2ccccc2)c2ccccc2)CC1	inactive: -2.91%
N#Cc1c(-c2ccccc2Cl)c2c([nH]c1=O)-c1ccccc1OC2	inconclusive: 52.2%
O=C(CCCN1C(=O)/C(=C\c2ccccc2)SC1=S)Nc1ccc(O)cc1C(=O)O	inactive: 20.6%
O=C1c2ccccc2C(=O)N1N(c1ccccc1)c1ccccc1	inactive: 0%
COc1ccc(/C=C2\SC(=S)N(CCC(=O)Nc3ccccc3C(=O)O)C2=O)cc1	inactive: -2.62%
Nc1ccc2c(O)cc(S(=O)(=O)O)cc2c1	inconclusive: 125%
Nc1cc2c3c(cccc3c1)C(=O)N(CCN1CCCC1)C2=O	inconclusive: 40.3%
Cc1cccc(N=Nc2cnc(N)s2)c1	inactive: 0.79%
Cc1ccc(S(=O)(=O)c2cc3c(=O)n4ccccc4nc3n(CC3CCCO3)c2=N)cc1C (configuration not stated)	inconclusive: 75.3%
CCOc1ccc2c(c1)c1nc3ccccc3nc1n2C	inconclusive: 97.9%
Cc1c(N=Cc2c(O)n(C)c(=O)c3ccccc23)c(=O)n(-c2ccccc2)n1C	inconclusive: 80.9%
CCOC(=O)C1CCN(C(=O)c2ccc3c(c2)NC(=O)/C(=C\c2cccc(C)c2)S3)CC1	inconclusive: 29.9%
O=C(O)c1ccc(Nc2ccc3nonc3c2[N+](=O)[O-])cc1	inactive: -2.31%
N#CC1=C(N)OC2=C(CC/C2=C\c2ccccc2)C1c1ccccc1 (configuration not stated)	inconclusive: 163%
CCN1CC=C2C(C#N)=C(N)C(C#N)(C#N)C(c3cc(Cl)ccc3Cl)C2C1 (configuration not stated)	inconclusive: 65.2%

Compound	inhibition
CCOc1cc(Cl)c(NC(C)=O)cc1OCC	inactive: -5.19%
Cc1occc1C(=O)Nc1cc(=O)n(C)c(=O)n1C	inconclusive: 29.4%
COc1cc(CNc2ccc(N3CCCC3)cc2)ccc1OCc1ccccc1	inactive: 12.3%
CCOC(=O)c1c(-c2ccccc2)oc2cc(CN(C)C)c(O)c(CN(C)C)c12	inconclusive: 29%
Cc1cccc(-n2nnnc2SCC(=O)Nc2cccc(S(N)(=O)=O)c2)c1	inactive: 0%
CCOC(=O)Cn1c(=O)c(-c2cc(Br)ccc2N)nc2ccccc21	inconclusive: 56.3%
Cc1ccc(/C=C2/Sc3ccc(C(=O)N4CCN(c5ccccn5)CC4)cc3NC2=O)cc1	inconclusive: 102%
Cc1ccccc1/C=C1\Oc2ccccc2C1=O	inactive: 1.3%
CCCCc1ccc(/C=C2/C(=O)ON=C2c2ccccc2)s1	inconclusive: 30.5%
CC1=NOC(=O)/C1=C\c1ccc(-c2ccccc2Br)o1	inactive: 3.96%
COCCNC(=O)C(=O)c1c(-c2ccccc2)[nH]c2ccccc12	inactive: 1.52%
O=C(NCc1ccccc1)c1cccc(S(=O)(=O)NCc2ccccc2)c1	inactive: -6.73%
Cc1c(C(=O)OCC(=O)NC2CC2)oc2ccc(Br)cc12	inactive: 4.33%
COc1cc(/C=C/C(=O)c2ccc3c(c2)OCO3)cc(Cl)c1O	inconclusive: 153%
CCN(CC)c1ccc(/C=C/c2cc(-c3ccccc3)c3ccccc3n2)cc1	inconclusive: 170%
Cc1c2ccccc2nc2c(F)c(NC(C)C)c(F)c(F)c12	inconclusive: 51.1%
COc1cc([N+](=O)[O-])ccc1-c1ccc(/C=N\n2cnnc2)o1	inconclusive: 35.2%
COc1ccc(Cn2c(=N)c(C(=O)NC3CCCCC3)cc3c(=O)n4ccccc4nc32)cc1	inconclusive: 41.2%
CC(C)CCN1C(=O)c2cccc3c(N)ccc(c23)C1=O	inconclusive: 45.3%
Nc1c(C(=O)c2cccs2)sc2nsc(SCCN3CCCCC3)c12	inconclusive: 45.3%
O=C(N=c1ccn(-c2nc3ccccc3nc2NS(=O)(=O)c2ccc(Cl)cc2)cc1)c1cccs1	inconclusive: 55.3%
Cc1cc2cc(CNC(=O)Cc3ccc([N+](=O)[O-])cc3)ccc2n1C	inconclusive: 69.2%

Compound	inhibition
CCn1c(O)c(/C=N/NC(=O)c2ccncc2)c(=O)n(CC)c1=S	inconclusive: 179%
COc1cc2c(cc1/C=C1/NC(=O)N(CC(=O)Nc3ccccc3)C1=O)OCO2	inconclusive: 103%
COc1ccc(OC)c(/C=C/c2nc3ccccc3[nH]c2=O)c1	inconclusive: 53%
C[C@H](CO)N1C[C@H](C)[C@@H](CN(C)C(=O)Nc2ccccc2)Oc2c(NC(=O)Cc3ccccc3)cccc2C1=O	inactive: -4%
NN=C1c2ccccc2C(=O)C1C(=O)C(c1ccccc1)c1ccccc1 (configuration not stated)	inconclusive: 44.6%
COC(=O)CCC(=O)OC1(C)C(=O)C=C2C=C(C3CC3)N(Cc3ccc(OC)cc3)C=C2C1=O (configuration not stated)	inactive: 17.3%
Cc1ccc(NS(=O)(=O)c2ccc(NS(=O)(=O)c3cccs3)cc2)cc1	inactive: -2.07%
CN(C)c1ccc(-c2ccc3oc(-c4ccsc4)cc(=O)c3c2)cn1	inconclusive: 37%
Cc1c(C(c2cccc([N+](=O)[O-])c2O)c2c(C)n(C)n(-c3ccccc3)c2=O)c(=O)n(-c2ccccc2)n1C	inactive: -5.62%
Cc1ccc(C(NC(=O)C(C)C)c2cc([N+](=O)[O-])c3cccnc3c2O)cc1 (configuration not stated)	inconclusive: 38.6%
Cc1c(Cl)cccc1NC(=S)N(Cc1cccnc1)Cc1ccccc1Cl	inactive: -4.52%
Cc1nc(SCc2nc3ccccc3[nH]2)c2oc3cc(Br)ccc3c2n1	inconclusive: 79.2%
Cc1ccc(-c2cc(-c3ccco3)c(C#N)c(=O)[nH]2)cc1	inconclusive: 38%
OCc1ccccc1CNCc1ccccc1	inactive: -5.52%
O=S(=O)(/N=C(\Nc1ccc(F)cc1)C(F)(F)F)c1ccccc1	inactive: 3.78%
Cc1ccc(NC2=C/C(=N/S(=O)(=O)c3cccs3)c3ccccc3C2=O)cc1	inactive: 1.1%
CSc1ccc(C2C(C(=O)c3ccco3)=C(O)C(=O)N2c2nnc(SC)s2)cc1 (configuration not stated)	inconclusive: 33.4%
Cc1ccc2c(nc3s/c(=C\c4ccc(-c5ccccc5C(=O)O)o4)c(=O)n32)c1C	inconclusive: 116%
CC12CCC(=O)N1C(C(=O)Nc1nccs1)CS2 (configuration not stated)	inactive: -5.93%
CCOC(=O)CSc1nc2cc(OCC)ccc2cc1C#N	inconclusive: 30.7%
CN(C)CCNc1ccc2ncn3c4ccc(O)cc4c(=O)c1c23	inconclusive: 43.8%
